Source: PubChem BioAssay AID1347055 (National Center for Advancing Translational Sciences (NCATS), 2019)
Out of some 54,000 compounds screened, about 120 (0.22%) were called active. This list was built around the results that the source calls inconclusive (neither active nor inactive); the mix of calls is not that of the screen. Calls come from the whole dose curve; as a rule, active = well fitted inhibition curve with a large enough effect; inconclusive = small, poorly fitted or top-dose-only effect, or effect the other way; inactive = flat fitted curve, though single readings scatter. No potency is given beside an inconclusive call; the fits are too rough.
Note: the screen sought activators but most active calls are inhibition curves; nearly all actives have a fitted effect of over 45% in size.
Potency is the fitted concentration of half-maximal effect; tags give direction and shape of the fitted curve.

What follows are compounds tested against Fumarate hydratase, mitochondrial (Homo sapiens) (UniProt P07954) (assay: Identification of activators of human fumarate hydratase by quantitative high-throughput screening). Conditions: FH coupled MDH/diaphorase resazurin fluorescence, 15 min; series mostly up to 79.9 µM.
UniProt P07954, sequence (P07954 whole entry, looked up): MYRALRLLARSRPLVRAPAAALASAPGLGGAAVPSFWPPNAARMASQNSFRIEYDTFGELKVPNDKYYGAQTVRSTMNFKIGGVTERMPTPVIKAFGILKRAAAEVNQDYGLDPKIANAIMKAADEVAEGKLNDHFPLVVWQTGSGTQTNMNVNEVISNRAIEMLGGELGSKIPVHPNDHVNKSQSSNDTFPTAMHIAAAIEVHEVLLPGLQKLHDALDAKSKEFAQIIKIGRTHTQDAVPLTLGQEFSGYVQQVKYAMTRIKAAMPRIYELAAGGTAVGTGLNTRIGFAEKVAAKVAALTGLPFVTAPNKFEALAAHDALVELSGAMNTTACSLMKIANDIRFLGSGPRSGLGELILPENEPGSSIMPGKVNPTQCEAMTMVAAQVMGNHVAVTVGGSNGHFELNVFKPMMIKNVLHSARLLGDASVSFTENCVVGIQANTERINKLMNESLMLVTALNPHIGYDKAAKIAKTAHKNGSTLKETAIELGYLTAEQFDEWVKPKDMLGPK
With Cc1cc(C)cc(NC(=O)C(=O)NCC(c2cccnc2)N2CCc3ccccc32)c1 (stereo not drawn) the Potency was inconclusive [inhibitor, partial curve]. For Nc1c(C(=O)NCc2ccc3c(c2)OCO3)nnn1CC(=O)Nc1ccc(Br)cc1, the Potency was “inactive”. In the case of COC1=CC(=O)O/C1=C(/OC)[C@@H]1O[C@H]1c1ccccc1, the Potency is reported as “inactive”. For CC(C)C(=O)Nc1cccc(C(=O)Nc2nnc(C(F)(F)F)s2)c1, the Potency was inconclusive [inhibitor, partial curve, poor fit]. With Cc1cccc(-n2nnc(-c3nc(-c4cccs4)no3)c2N)c1 the Potency was “inactive”. With Cc1cc(N2CCC(C)CC2)nc2ccc(NC(=O)CCC(=O)N3CCN(c4ccccc4F)CC3)cc12 the Potency was inconclusive [inhibitor, partial curve, poor fit]. For CCOc1ccc2c(c1)c(=O)c(S(=O)(=O)c1ccc(CC)cc1)cn2Cc1cccc(Cl)c1, the Potency was inconclusive [inhibitor, single point]. For CCN(CC)C(=O)C1CCCN(c2ncnc3c2c(-c2ccccc2)cn3-c2cccc(C)c2)C1 (stereo not drawn), the Potency was inconclusive [inhibitor, single point]. In the case of CCCCCCCCOc1ccccc1C(=O)Nc1ccc(C(=O)OCC[N+](C)(CC)CC)cc1, the Potency is reported as “inactive”. For COc1ccc(-c2cc3ccc(O)c(CN4CCCCC4C)c3oc2=O)cc1OC (stereo not drawn), the Potency was inconclusive [inhibitor, single point]. With COCc1oc2ccc(NS(=O)(=O)c3ccc(C)cc3)cc2c1C(=O)OC the Potency was “inactive”. In the case of COc1ccc(OCc2ccc(-c3nc(C#N)c(NCc4cccnc4)o3)o2)cc1, the Potency is reported as inconclusive [inhibitor, single point]. In the case of CC1(COc2ccc(CC3SC(=O)NC3=O)cc2)CCCCC1 (stereo not drawn), the Potency is reported as inconclusive [inhibitor, single point]. With O=C(Nc1ccc2oc(-c3ccc4ccccc4c3)nc2c1)c1cc(Cl)ccc1Cl the Potency was “inactive”. COc1cc(-c2ccno2)ccc1S(=O)(=O)N1CCN(c2ccccc2)CC1 was tested, and the Potency was “inactive”. In the case of CS(=O)(=O)c1ncc(Cl)c(C(=O)Nc2c(C(=O)c3ccc(Cl)cc3)oc3ccccc23)n1, the Potency is reported as inconclusive [inhibitor, partial curve, poor fit]. With CCc1ccc2oc(-c3ccc(NC(=O)c4cccc(Cl)c4Cl)cc3)nc2c1 the Potency was inconclusive [inhibitor, partial curve]. With Cc1ccc(NC(=O)C(C)Sc2nc3c(c(=O)[nH]2)CCCC3)cc1Cl (stereo not drawn) the Potency was inconclusive [inhibitor, partial curve, poor fit]. With COc1ccccc1N1CCN(C(=O)c2cc3c(-c4ccccc4F)nn(C)c3s2)CC1 the Potency was inconclusive [inhibitor, partial curve, poor fit]. Cc1cc(=O)n(Cc2c(F)cccc2Cl)c2c1c(C)nn2C was tested, and the Potency was inconclusive [inhibitor, single point]. For CN(C)c1ccc(Nc2nc(N)n(C(=O)c3c(F)cccc3F)n2)cc1, the Potency was “inactive”. With CCNS(=O)(=O)c1cc(-c2nnc(Nc3cccc(C(F)(F)F)c3)c3ccccc23)ccc1C the Potency was inconclusive [inhibitor, partial curve, poor fit]. For Cc1nc2nc(C)c(NS(=O)(=O)c3ccc(F)cc3)c(=O)n2[nH]1, the Potency was “inactive”. With CCOCCn1nc(CC)c2nc(N3CCC(C(=O)O)CC3)nc(Nc3cc(C)ccn3)c21 the Potency was “inactive”. With CCOc1ccccc1CNS(=O)(=O)c1ccc2c(c1)C(C)(C)C(=O)N2C the Potency was inconclusive [inhibitor, single point]. In the case of Cc1ccc(S(=O)(=O)C2(C(=O)Nc3ccc(C)c(Cl)c3)CC2)cc1, the Potency is reported as inconclusive [inhibitor, partial curve]. With Cc1ccccc1NC(=O)N1CCc2cc(S(=O)(=O)N3CCC(C)CC3)ccc21 the Potency was “inactive”. For CC(=O)N(O)CCCCCN1C(=O)CCC1=O, the Potency was “inactive”. With CC(C)Cn1cc(NC(=O)NCc2ccccc2)c2ccccc2c1=O the Potency was inconclusive [activator, single point]. With O=C(NNc1nc2cc(F)ccc2n2cccc12)c1cnccn1 the Potency was inconclusive [activator, full curve]. With COc1cc(N2C(=O)CSC23C(=O)N(C)c2ccccc23)cc(OC)c1OC (stereo not drawn) the Potency was “inactive”. With CC(C)c1cc(CNc2nc(Nc3cc(C4CC4)[nH]n3)cc(N3CCN(C)CC3)n2)on1 the Potency was “inactive”. In the case of CN(C(=O)CSc1nc2ccc(NC(=O)c3ccccc3F)cc2s1)c1ccccc1, the Potency is reported as inconclusive [inhibitor, partial curve, poor fit]. With Cc1ccc(NC(=O)CN(CCc2ccccc2)S(=O)(=O)c2ccccc2)c(C)c1 the Potency was inconclusive [inhibitor, partial curve, poor fit]. With N#Cc1c(-n2ncnc2-c2ccc(Br)cc2)sc2c1CCCCC2 the Potency was “inactive”. CCc1ccc(CNC(=O)CN(c2ccc(C)cc2)S(=O)(=O)N(C)C)cc1 was tested, and the Potency was “inactive”. With CC(C)CC(=O)Nc1ccc(S(=O)(=O)Nc2cc3c(cc2N2CCOCC2)n(C)c(=O)c(=O)n3C)cc1 the Potency was inconclusive [inhibitor, single point]. For Cc1nc2sccn2c(=O)c1CCN1CCC(=C(c2ccc(F)cc2)c2ccc(F)cc2)CC1, the Potency was inconclusive [inhibitor, single point]. For O=C1C[C@@]2(C(=O)N1)C(=O)N(Cc1ccc(Br)cc1F)C(=O)c1cccn12, the Potency was “inactive”. In the case of CCc1ccc(-c2nc3cc(NC(=O)c4cc5ccccc5cc4OC)ccc3o2)cc1, the Potency is reported as “inactive”. For CCOC(=O)C1=C(C)NC(C)=C(C(=O)OC)C1c1cccc(Cl)c1Cl (stereo not drawn), the Potency was inconclusive [inhibitor, single point]. CCOC(=O)c1ccc(NC(=O)CSc2nnc(CNC(=O)c3ccc(OC)cc3)n2CC)cc1 was tested, and the Potency was “inactive”. CCOC(=O)c1c(NC(=O)CSc2cn(CCNC(=O)c3ccc(OC)c(OC)c3)c3ccccc23)sc2c1CCC2 was tested, and the Potency was inconclusive [inhibitor, partial curve].
